Measurements taken from PubChem BioAssay AID1768 (National Center for Advancing Translational Sciences (NCATS), 2009).
Out of some 270,000 compounds screened, about 620 (0.23%) were called active. This list was built around the results that the source calls inconclusive (neither active nor inactive); the mix of calls is not that of the screen. Calls come from the whole dose curve; as a rule, active = well fitted inhibition curve with a large enough effect in the polarisation, with a control signal flat (not every such curve was filed as active); inconclusive = small, poorly fitted or top-dose-only effect, or effect the other way, or a change in a side signal; inactive = no such curve, though single readings can be large or run the other way; the % refers to the polarisation. A potency beside an inconclusive call is a rough fit, not a confirmed value. A note “side channel” means that the fit belongs to a control or component signal, not to the main read-out.
Potency is the fitted concentration of half-maximal effect; tags give direction and shape of the fitted curve or compound fluorescence and quenching.
Throughout, for FP activity change, negative = inhibition: % of control where 0% means no effect.

These molecules were tested against Menin (Homo sapiens) (UniProt O00255) (assay: qHTS Assay for Inhibitors Targeting the Menin-MLL Interaction in MLL Related Leukemias: Competition With Texas Red Labeled MLL-derived Mutant Peptide). Conditions: fluorescence polarization; FP activity change, negative = inhibition: at 61.6 µM (top of the series).
Chain of UniProt O00255 (O00255 whole entry, looked up): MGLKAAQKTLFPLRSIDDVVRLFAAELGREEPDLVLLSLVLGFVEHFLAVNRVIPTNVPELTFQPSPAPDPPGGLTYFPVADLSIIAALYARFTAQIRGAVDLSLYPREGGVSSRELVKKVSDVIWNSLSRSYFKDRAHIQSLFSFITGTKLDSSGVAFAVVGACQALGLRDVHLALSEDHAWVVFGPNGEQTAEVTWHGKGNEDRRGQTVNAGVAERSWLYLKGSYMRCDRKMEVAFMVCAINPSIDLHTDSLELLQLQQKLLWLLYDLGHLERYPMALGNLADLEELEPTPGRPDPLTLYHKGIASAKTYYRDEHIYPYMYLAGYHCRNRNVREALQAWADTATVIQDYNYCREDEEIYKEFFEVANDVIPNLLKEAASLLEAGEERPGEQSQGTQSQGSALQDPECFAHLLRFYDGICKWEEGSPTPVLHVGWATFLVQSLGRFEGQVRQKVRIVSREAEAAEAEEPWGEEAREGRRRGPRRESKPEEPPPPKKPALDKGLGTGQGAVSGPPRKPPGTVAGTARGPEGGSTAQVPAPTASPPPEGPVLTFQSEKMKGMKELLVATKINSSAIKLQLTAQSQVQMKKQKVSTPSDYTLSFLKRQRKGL
With `COc1ccc(-n2c(CSc3nc(C)cc(C)n3)nnc2SCC(=O)Nc2nccs2)cc1` the Potency was inconclusive: 28.2 µM [fluorescent, side channel, single point]. `O=C(c1ccccc1)N1N=C(c2ccccc2O)CC1c1ccccc1` (configuration not stated) was tested, and the Potency was active: 28.2 µM. In the case of `COC(C(=O)N/N=C(\C)c1ccc(C(C)(C)C)cc1)c1ccccc1` (configuration not stated), the Potency is reported as inconclusive: 0.708 µM [inhibitor, full curve, poor fit]. `Cc1ccc(C(=O)NC(=S)NCC(=O)c2ccccc2)cc1` was tested, and the Potency was inconclusive: 25.1 µM [inhibitor, single point]. For `COc1cc2cc3c(N)c(C(=O)NCc4ccco4)sc3nc2cc1OC`, the Potency was inconclusive: 25.1 µM [quencher, side channel, partial curve]. In the case of `CC(NC(=O)CN(C)Cc1ccc(Br)cc1)c1ccccc1` (configuration not stated), the Potency is reported as inconclusive: 22.4 µM [fluorescent, side channel, partial curve]. With `O=c1oc(Cl)c(Cl)c2ccccc12` the “FP activity change, negative = inhibition” value was inactive: 7.01%. For `CCc1ccc(CCC(=O)Nc2ccccc2C(=O)O)o1`, the Potency was inconclusive: 25.1 µM [quencher, side channel, single point]. With `O=C(COc1ccc2ccccc2c1)NNC(=O)Cc1ccccc1` the Potency was inconclusive: 35.5 µM [inhibitor, single point]. `Cc1nc2ncnn2c(N2CCN(c3cccc(C(F)(F)F)c3)CC2)c1C` was tested, and the Potency was inconclusive: 4.47 µM [inhibitor, single point]. In the case of `c1ccc(-n2cnnc2SCc2cn3ccccc3n2)cc1`, the Potency is reported as inconclusive: 7.94 µM [inhibitor, single point]. With `O=[N+]([O-])c1cccc2ccc(/C=C/c3ccc(C(F)(F)F)cc3)nc12` the Potency was inconclusive: 5.62 µM [quencher, side channel, partial curve]. In the case of `Cc1ccc(OC(=O)c2ccc3nc(C)sc3c2)cc1`, the Potency is reported as inconclusive: 15.8 µM [fluorescent, side channel, partial curve, poor fit]. `Cc1cc(N2C(=O)C(=O)/C(=C(/O)c3ccc(Cl)cc3)C2c2cccc(Br)c2)no1` (configuration not stated) was tested, and the Potency was inconclusive: 28.2 µM [quencher, side channel, partial curve]. For `CC(C)c1ccc(CC(C)C2C3=C(CCCC3=O)OC3=C2C(=O)CCC3)cc1` (configuration not stated), the Potency was inconclusive: 7.94 µM [fluorescent, side channel, partial curve]. In the case of `Oc1ccccc1Nc1nc(NCc2ccccc2)c2ccccc2n1`, the Potency is reported as inconclusive: 25.1 µM [quencher, side channel, partial curve]. `N#Cc1c2ccc(O)cc2n2ccccc12` was tested, and the Potency was inconclusive: 28.2 µM [quencher, side channel, single point]. With `COc1ccc(-n2ncc3c2CC(C)(C)CC3NC(=O)CCCN2CCCC2=O)cc1` (configuration not stated) the Potency was inconclusive: 100 µM [inhibitor, partial curve, poor fit]. With `Cc1c(/C=N/NC(=O)c2ccc3c(c2)OCO3)cnn1C` the Potency was inconclusive: 11.2 µM [fluorescent, side channel, partial curve]. With `NNC(=O)c1sccc1OCc1ccc(Cl)cc1` the Potency was inconclusive: 3.55 µM [fluorescent, side channel, full curve, poor fit]. `COCC(=O)Nc1ccc(-c2cn3cccnc3n2)cc1` was tested, and the Potency was inconclusive: 39.8 µM [inhibitor, single point]. In the case of `COc1ccnc2c1c(=O)n(Cc1ccc(Cl)cc1Cl)c(=O)n2C`, the “FP activity change, negative = inhibition” value is reported as inactive: 18.6%. `O=C(NCc1cccnc1)c1ccc2c(=O)n(CCCN3CCCC3=O)c(=S)[nH]c2c1` was tested, and the Potency was inconclusive: 12.6 µM [inhibitor, single point]. In the case of `CCN(CC)CC(=O)Nc1ccc(-c2ccc(NC(=O)CN(CC)CC)c(OC)c2)cc1OC`, the Potency is reported as inconclusive: 35.5 µM [fluorescent, side channel, partial curve]. With `CS(=O)(=O)NC(=O)CCC/C=C\C[C@H]1C(=O)C[C@@H](O)[C@@H]1/C=C/[C@@H](O)COc1ccccc1` the Potency was inconclusive: 10 µM [inhibitor, partial curve, poor fit]. For `COc1ccc(CN(C)C(=O)c2cc(S(=O)(=O)Nc3ccccc3F)ccc2C)c(OC)c1`, the Potency was inconclusive: 7.08 µM [quencher, side channel, single point]. In the case of `CC(C)(C)OC(=O)N1CCC(CC2CC(c3cccc(Br)c3)=NO2)(C(=O)NCC2CCCCC2)CC1` (configuration not stated), the Potency is reported as inconclusive: 5.01 µM [inhibitor, full curve, poor fit]. With `CC1CCC2C(C1)Nc1c(C(=O)O)cccc1C2(C)C` (configuration not stated) the Potency was inconclusive: 25.1 µM [quencher, side channel, partial curve]. In the case of `COc1cc(/C=N/O)cc(Br)c1OCc1ccc(Cl)cc1`, the Potency is reported as inconclusive: 14.1 µM [quencher, side channel, partial curve]. For `Cc1ccccc1Nc1nc(CSc2nnnn2-c2ccccc2)cs1`, the Potency was inconclusive: 25.1 µM [quencher, side channel, single point]. `COc1ccc(-c2cc(C(F)(F)F)nc(SCC(=O)NCc3ccco3)n2)cc1OC` was tested, and the “FP activity change, negative = inhibition” value was inactive: -1.4%. With `Clc1ccc(Oc2nc(N3CCOCC3)nc(N3CCOCC3)n2)cc1` the Potency was inconclusive: 10 µM [fluorescent, side channel, partial curve]. For `C=CCn1c(SCc2ccccc2)nc(O)cc1=O`, the Potency was inconclusive: 14.1 µM [inhibitor, partial curve]. In the case of `CCOc1ccccc1Nc1nc(-c2sc(NC(=O)c3ccccc3)nc2C)cs1`, the Potency is reported as inconclusive: 4.47 µM [quencher, side channel, full curve]. In the case of `Cc1cccc(OCC(=O)NNC(=O)Nc2cccc(Cl)c2)c1C`, the Potency is reported as inconclusive: 14.1 µM [inhibitor, partial curve]. With `CC1CC[C@@]2(OC1)O[C@H]1CC3[C@@H]4C[C@@H](O)[C@@]5(O)C[C@@H](O)[C@H](O)C[C@]5(C)[C@H]4CC[C@]3(C)[C@H]1[C@@H]2C` (some centres not stated) the “FP activity change, negative = inhibition” value was inactive: 25.8%. `O=[N+]([O-])c1cccc(-c2nc3ccccc3s/c2=N/O)c1` was tested, and the Potency was inconclusive: 31.6 µM [quencher, side channel, single point].
